Screen size: about 310,000 compounds; about 11,000 (3.5%) were called active. This list was built around the results that the source calls inconclusive (neither active nor inactive); the mix of calls is not that of the screen. The call rests on the fitted dose curve; in most records, active means well fitted inhibition curve with a large enough effect; inconclusive means small, poorly fitted or top-dose-only effect, or effect the other way; inactive means flat fitted curve, though single readings scatter. No potency is given beside an inconclusive call; the fits are too rough.
Assay: VP16 counterscreen qHTS for inhibitors of ROR gamma transcriptional activity;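 further: Gal4-VP16 expression switched on by copper sulfate through the metallothionein promoter; nearly all actives have a fitted effect of over 50% in size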
Conditions: Drosophila S2 Gal4-VP16 UAS-luciferase, luminescence, 20 h; series mostly up to 53.6 µM
Potency means the concentration at half of the fitted maximal effect; tags describe the fitted curve by direction and shape.

Structure (SMILES)	Potency
Fc1ccc(CNc2ncnc3cc(Cl)ccc23)cc1	inconclusive [inhibitor, single point]
CCC(NS(=O)(=O)c1cn(C)nc1C)c1ccccc1 (configuration not stated)	inactive
Clc1c(OCCCn2ccnc2)ccc2ccccc12	inconclusive [inhibitor, single point]
NC(=O)CC(NC(=O)c1ccc(Br)cc1)c1ccc(NC2CCCCCC2)c([N+](=O)[O-])c1 (configuration not stated)	inconclusive [inhibitor, single point]
COC(=O)c1ccc(NC(=S)NC2CCCCC2)cc1	inconclusive [inhibitor, single point]
Cc1nn(Cc2cccc(F)c2)c(C)c1NC(=O)c1ccc(COc2ccccc2Cl)cc1	inconclusive [inhibitor, single point]
COc1ccccc1NC(=O)CN1CCN(CC(=O)Nc2ccc(Cl)c(C(F)(F)F)c2)CC1	inconclusive [inhibitor, single point]
Cc1ccc(C(=O)NC(=S)Nc2ccc(N3CCOCC3)cc2)cc1	inconclusive [inhibitor, single point]
Cc1nn(-c2ccccc2)c2c1C(c1ccc(O)c(O)c1)N1C(=N2)C(Nc2ccccc2)=Nc2ccccc21 (configuration not stated)	inconclusive [inhibitor, single point]
Cc1ccc(O)c(-c2cc(-c3ccccc3F)[nH]n2)c1	inconclusive [inhibitor, single point]
COc1ccc2nc(C)cc(SCC(=O)N/N=C/c3c(OC)ccc4ccccc34)c2c1	inconclusive [inhibitor, single point]
CC(=O)N(C)c1ccc(OCC(O)Cn2c(C)nc3ccccc32)cc1 (configuration not stated)	active: 15.8 µM
O=C(NCC1OCCc2ccccc21)c1ccc(NC(=O)c2ccc(Cl)cc2Cl)cc1 (configuration not stated)	inconclusive [inhibitor, single point]
CCOc1ccc(/C=N/Nc2ccccn2)cc1	inconclusive [inhibitor, single point]
COc1cc(Br)cc(/C=N/c2ncn[nH]2)c1O	inconclusive [inhibitor, single point]
CCC(NC(=O)c1ccc([N+](=O)[O-])cc1[N+](=O)[O-])c1ccccc1 (configuration not stated)	inactive
O=C(/C=C/c1ccco1)Nc1ccccc1N1CCOCC1	inconclusive [activator, single point]
Cc1nc2ccccc2c(=O)n1/N=C/c1ccccc1F	inconclusive [activator, single point]
O=C(CSc1nnc2c(n1)[nH]c1ccccc12)Nc1ccc(N2CCOCC2)cc1	inconclusive [inhibitor, single point]
COc1ccccc1NC(=O)c1ccc2c(c1)C(=O)N(c1ccccc1OC)C2=O	inconclusive [inhibitor, single point]
O=C(O)c1cc(/C=C/c2ccc(N3CCOCC3)c([N+](=O)[O-])c2)nc2ccccc12	inconclusive [inhibitor, single point]
Cc1nn(-c2ccc(F)cc2)c(C)c1CN1CCN(CCc2ccccc2)C(CCO)C1 (configuration not stated)	inactive
CC(=O)c1ccc(N2CCN(C(=O)c3cc4c(-c5ccccc5F)nn(C)c4s3)CC2)cc1	inconclusive [inhibitor, single point]
CC(=O)Oc1ccc(N2C(=O)C3C4C=CC(O4)C3C2=O)cc1 (configuration not stated)	inconclusive [inhibitor, single point]

Structure (SMILES)	Potency
COc1cc2c(cc1NC(=S)NC(=O)/C=C/c1ccco1)oc1ccccc12	active: 5.01 µM
COc1cc(OC)cc(C(=O)NC(=S)NNC(=O)c2cnccn2)c1	inconclusive [inhibitor, single point]
CCc1cccc(NC(=O)Cn2cccc2)c1	inconclusive [inhibitor, single point]
COc1ccc(C(=O)NC(=S)N(CCC(C)C)c2c(N)n(Cc3ccccc3)c(=O)[nH]c2=O)cc1	inconclusive [inhibitor, single point]
Cc1cc(/C=C2\NC(=S)N(C)C2=O)ccc1N1CCCC1	inconclusive [inhibitor, single point]
CCOC(=O)C1=C(C)NC2=C(C1c1ccc([N+](=O)[O-])cc1)S(=O)(=O)c1ccccc12 (configuration not stated)	inactive
COc1ccccc1NC(=O)CN1C(=O)COc2ccc(S(=O)(=O)N3CCCCCC3)cc21	inactive
C/C(CC(=O)Nc1ccc(Cl)cc1Cl)=N\NC(=O)c1ccncc1	active: 17.8 µM
COc1cc(O)c2c(c1)OC(C)(C)CC2=O	inactive
CCOc1ccc(-c2c[n+]3c(n2-c2ccccc2)CCCCC3)cc1	active: 3.55 µM
CC(=O)OCCCNc1cc(Sc2ccc(C)cc2)c2nonc2c1[N+](=O)[O-]	inconclusive [inhibitor, single point]
O=C(CSc1nnc(Cn2cnc3ccccc32)o1)c1ccccc1	inconclusive [inhibitor, single point]
Cc1nn(CCC(=O)NNC(=S)Nc2ccc(F)cc2)c(C)c1[N+](=O)[O-]	inactive
COCCn1c(C)cc(C(=O)COC(=O)c2ccccc2Br)c1C	inconclusive [inhibitor, full curve]
Cc1ccc2oc(-c3cccc(N)c3)nc2c1	inconclusive [inhibitor, partial curve]
O=C(NC(=S)Nc1ccc2nc[nH]c2c1)c1ccccc1	inconclusive [activator, single point]
O=C(Nc1nonc1-c1ccc(Cl)cc1)c1ccccc1	inconclusive [inhibitor, single point]
CCOc1ccc(NC(=O)CSc2nnc(-c3ccncc3)n2CC2CCCO2)cc1 (configuration not stated)	inactive
NCCCCCc1nnc(SCc2ccccc2Cl)o1	active: 0.447 µM
Cc1ccc(S(=O)(=O)NCC2CCCO2)cc1 (configuration not stated)	inactive
Cc1ccn2cc(C34CC5CC(CC(C5)C3)C4)nc2c1	inconclusive [inhibitor, single point]
CS(=O)(=O)Nc1ccc(C2=NN(C(=O)c3ccco3)C(c3ccc(F)cc3)C2)cc1 (configuration not stated)	inconclusive [activator, single point]
CS(=O)(=O)c1ccc(C(=O)NCCN2C(=O)S/C(=C\c3cccnc3)C2=O)cc1[N+](=O)[O-]	inconclusive [inhibitor, single point]
Cc1sc(NC(=O)CSc2ncn(-c3ccccc3)n2)nc1-c1ccccc1	inconclusive [inhibitor, single point]

Structure (SMILES)	Potency
C=Cc1cccc(NC(=O)c2ccc(NC(=O)c3ccco3)cc2)c1	inactive
COc1ccc(C(=O)N[C@H]2COC(C)(C)O[C@H]2c2ccccc2)cc1	inconclusive [inhibitor, full curve, poor fit]
CC(C)NC(=O)[C@H](CSCc1ccccc1)N1Cc2ccccc2C1=O	inactive
Cc1cc(Cl)ccc1N=c1ssnc1Cl	inconclusive [inhibitor, single point]
O=C(CC1C(=O)NCCN1Cc1ccccn1)NCCc1ccccc1F (configuration not stated)	inactive
N#Cc1c(N2CCCC2)nsc1-c1ccccc1	inconclusive [activator, single point]
CC1=C(C(=O)N2CCCC(CCC(=O)NCc3ccc(F)c(F)c3)C2)OCCO1 (configuration not stated)	inconclusive [activator, single point]
CCC1Sc2ccc(S(=O)(=O)Nc3ccc(OC)c(OC)c3)cc2NC1=O (configuration not stated)	active: 8.91 µM
C/C(N)=C(/C#N)C(=O)CSc1ncnc2ccccc12	inactive
CC1Cc2ccccc2N1Cc1nc2cc(Cl)ccc2c(=O)[nH]1 (configuration not stated)	inactive
Cc1ccc(/C(N)=N/OC(=O)c2ccc3c(c2)OCO3)cc1	inconclusive [inhibitor, single point]
Cc1cccc2cc(CN(Cc3nnnn3C3CCCCC3)C3CCCC3)c3nnnn3c12	inactive
O=C(NCc1ccc2c(c1)OCO2)C1CCCN1S(=O)(=O)c1ccc(Cl)cc1 (configuration not stated)	inactive
CC(C)c1cc(C(=O)N/N=C/C=C/c2ccccc2)n[nH]1	active: 20 µM
CCOc1ccc(-c2n[nH]c(=S)c3ccccc23)cc1	active: 10 µM
Cc1ccc(NS(=O)(=O)c2cc([N+](=O)[O-])ccc2NNC(=S)Nc2cc(C)ccc2C)c(C)c1	inconclusive [inhibitor, single point]
O=C(c1ccc(O)cc1)c1ccc(C(=O)c2ccc(O)cc2)cc1	inconclusive [inhibitor, full curve, poor fit]
Cc1ccc(S(=O)(=O)N2CCCC(C(=O)N3CCCc4ccccc43)C2)cc1 (configuration not stated)	inactive
Cc1nn(C)cc1/C=C/C(=O)c1cccs1	inconclusive [inhibitor, single point]
COCCn1c(=S)[nH]c2sc3c(c2c1=O)CCCC3	active: 2.24 µM
CC1=NN(C(=O)c2ccccc2Cl)C(O)(c2ccccc2)C1 (configuration not stated)	active: 7.08 µM
Cc1ccc(S(=O)(=O)Nc2ccc3ncccc3c2)cc1	active: 17.8 µM
COc1ccc(/C=N/Nc2cc(C)nc(-n3nc(C)cc3C)n2)cc1	active: 0.355 µM
CC(C)Oc1cccc(C(=O)C2CCCN(C(=O)c3cc(C(F)(F)F)[nH]n3)C2)c1 (configuration not stated)	inconclusive [inhibitor, single point]

— PubChem BioAssay AID2546 (National Center for Advancing Translational Sciences (NCATS), 2010)
